# The campaign covered roughly 310,000 compounds. About 2,200 (0.71%) showed an effect of 50% or more. The effect is printed as a negative number. The list shows a part of the results.
# Target: human ether-à-go-go-related gene (hERG) potassium channel (human, UniProt Q12809)
# Experiment: primary screen, population patch clamp on CHO cells stably expressing hERG
# Sequence of human ether-à-go-go-related gene (hERG) potassium channel (Q12809 whole entry, looked up): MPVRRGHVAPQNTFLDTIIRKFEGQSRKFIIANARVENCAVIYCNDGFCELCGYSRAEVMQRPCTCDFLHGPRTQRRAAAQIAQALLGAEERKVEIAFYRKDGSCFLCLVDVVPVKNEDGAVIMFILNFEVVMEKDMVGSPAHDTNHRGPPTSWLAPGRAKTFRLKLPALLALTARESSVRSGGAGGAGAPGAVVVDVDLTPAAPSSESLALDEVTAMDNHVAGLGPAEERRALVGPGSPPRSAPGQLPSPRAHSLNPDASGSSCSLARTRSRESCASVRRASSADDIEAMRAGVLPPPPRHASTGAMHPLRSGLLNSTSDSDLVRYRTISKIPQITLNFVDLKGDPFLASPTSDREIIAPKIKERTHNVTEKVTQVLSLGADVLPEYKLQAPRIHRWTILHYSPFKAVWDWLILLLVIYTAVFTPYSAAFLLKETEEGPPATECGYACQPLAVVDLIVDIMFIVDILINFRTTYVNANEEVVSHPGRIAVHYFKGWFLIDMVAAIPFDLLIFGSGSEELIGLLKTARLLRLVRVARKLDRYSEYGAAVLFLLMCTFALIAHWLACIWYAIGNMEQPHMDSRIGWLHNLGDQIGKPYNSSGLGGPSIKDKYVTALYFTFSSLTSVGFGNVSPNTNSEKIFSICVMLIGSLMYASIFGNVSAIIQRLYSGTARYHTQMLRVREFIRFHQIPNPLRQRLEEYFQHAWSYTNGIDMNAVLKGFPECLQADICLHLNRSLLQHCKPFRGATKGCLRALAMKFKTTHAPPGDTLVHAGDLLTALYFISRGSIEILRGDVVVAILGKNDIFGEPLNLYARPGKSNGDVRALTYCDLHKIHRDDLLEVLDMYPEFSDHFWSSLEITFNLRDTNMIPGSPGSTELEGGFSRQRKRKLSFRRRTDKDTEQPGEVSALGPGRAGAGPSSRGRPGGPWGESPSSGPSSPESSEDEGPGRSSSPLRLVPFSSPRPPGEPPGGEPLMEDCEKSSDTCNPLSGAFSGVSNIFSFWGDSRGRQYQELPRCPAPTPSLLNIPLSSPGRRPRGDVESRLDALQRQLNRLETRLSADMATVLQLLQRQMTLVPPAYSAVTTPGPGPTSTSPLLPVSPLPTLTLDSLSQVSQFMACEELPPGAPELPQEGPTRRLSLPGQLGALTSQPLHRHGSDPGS
row,SMILES,"hERG current change (%, negative = inhibition) at 1uM [%]"
1,CCCCOC(=O)Nc1nnc(CCc2ccccc2)s1,15.8
2,O=C(COc1ccc(Br)cc1)NNC(=S)NCc1ccccc1,8.17
3,COC(=O)c1ccc(CSc2nc3c(c(=O)n2-c2ccc(F)cc2)SCC3)o1,6.74
4,Cc1nc(CSc2n[nH]c(=O)n2-c2ccccc2)cs1,-1.48
5,O=C(O)c1cccn1Cc1ccccc1F,11
6,O=C(O)C1C2C=CC(O2)C1C(=O)NC1CCCc2ccccc21 (centres unmarked),9.49
7,COc1ccc(NC(=O)c2cc3c(=O)n(C)c4ccccc4c3s2)cc1OC,7.24
8,Cc1ccccc1N(CC(=O)N1CCOCC1)S(C)(=O)=O,15.5
9,CCOC(=O)C1(Cc2ccc(OC)cc2)CCN(C(=O)CN2CCOC2=O)CC1,12.7
10,CCC(=O)Nc1ccc2oc(-c3ccccc3Br)nc2c1,9.07
11,O=C(O)CN1C(=O)/C(=C\c2cccc(OCc3ccc(F)cc3)c2)SC1=S,6.79
12,O=C(COC(=O)COc1cccc(C(F)(F)F)c1)NC1CCS(=O)(=O)C1 (centres unmarked),3.96
13,O=C(NCc1ccccc1)/C(=C/c1ccco1)NC(=O)c1ccco1,-0.0579
14,O=C(C[n+]1ccc2ccccc2c1)c1cccc2ccccc12.[Br-],-34.4
15,COc1ccc(N2CCN(C3CCCN(C(=O)C4=C(C)OCCO4)C3)CC2)cc1 (centres unmarked),7.16
16,CCOC(=O)Cn1c(-c2nonc2NC(=O)c2ccccc2F)nc2ccccc21,10.5
17,Cc1[nH]c2ccccc2c1/C=C/C(=O)c1ccncc1,11.7
18,Cc1ccc(-n2nc3c(=O)n(CC(=O)NCCc4ccco4)nc(C)c3c2C)cc1,13
19,C=CCn1c(SCC(=O)/C(C#N)=C(\C)N)nc2sc(CC)cc2c1=O,15.8
20,CCN(C(=O)COC(=O)/C=C/c1ccccc1)C1CCCCC1,0.077
21,Cc1cccc(-c2ccc(C=Nc3c(C)n(C)n(-c4ccccc4)c3=O)o2)c1,8.52
22,Cc1ccc(S(=O)(=O)CC(=O)c2ccc([N+](=O)[O-])cc2)cc1,5.39

row,SMILES,"hERG current change (%, negative = inhibition) at 1uM [%]"
1,O=S(=O)(c1cnccc1N1CCN(CCO)CC1)N1CCCCC1,9.78
2,Cc1ccc(S(=O)(=O)NCCC(=O)Nc2nnc(C3CC3)s2)cc1C,16
3,COc1ccc(Cc2nc3ccc(C(=O)N4CCN(C)C(C)C4)cc3o2)cc1OC (centres unmarked),1.76
4,CN1C(=O)[C@@H]2[C@@H]3C[C@@H]([C@H]4ON=C(c5ccccc5OCC#N)[C@@H]34)[C@@H]2C1=O,1.36
5,Cc1cccc(N(C(=O)Cn2nnc3ccccc32)C(C(=O)NCc2ccco2)c2ccncc2)c1 (centres unmarked),4.42
6,COC(=O)C1=C(c2ccc(-c3ccccc3)c(F)c2)C[C@@H]2CC[C@H]1N2C(=O)NCCOc1ccccc1,9.04
7,Cc1ccc(P(=Nc2ccccc2)(N2CCOCC2)N2CCOCC2)o1,-0.807
8,O=C1C=CC(=O)N1c1ccc(I)cc1Cl,13.5
9,CC(=O)N/N=C/c1cc(C(C)(C)C)cc(/C=N/NC(C)=O)c1O,15.2
10,Cn1c(O)c(C=NCCN2CCN(C(=O)Nc3ccccc3)CC2)c(=O)n(C)c1=O,17.5
11,Cl.O=[N+]([O-])c1cc(CN(CCO)CCO)ccc1O,3.69
12,NS(=O)(=O)c1ccc(N/C=C\C(=O)c2ccc(F)cc2)cc1,11.4
13,CCOc1c(Cl)cc(CNCC(O)c2ccccc2)cc1OC.Cl (centres unmarked),5.12
14,COc1ccc(/C=C2\CC/C(=C\c3ccc(OC)cc3OC)C2=O)c(OC)c1,-1.76
15,CC(CSc1nnnn1-c1ccccc1)Cn1c(N2CCN(C)CC2)nc2c1c(=O)[nH]c(=O)n2C (centres unmarked),2.1
16,Cc1cc(OC(=O)c2cc(Br)ccc2Cl)c([N+](=O)[O-])c(=O)[nH]1,6.76
17,O=C(Cc1cccc2ccccc12)NCC(=O)Nc1ccccc1F,8.74
18,COc1ccccc1CC(=O)N(CCC1=CCCCC1)c1c(N)n(Cc2ccccc2)c(=O)[nH]c1=O,9.44
19,Cc1[nH]c(=O)[nH]c(=O)c1S(=O)(=O)NCC12CC3CC(CC(C3)C1)C2,0.34
20,CC[C@H](C)[C@H](NC(N)=O)C(=O)Nc1ccc(OC)c(Cl)c1,16.3
21,CC(Oc1cc(-c2ccccc2)cc2ccccc12)C(=O)N1CCOCC1 (centres unmarked),6.22
22,CN(C)Cc1ccc(CNC(=O)c2ccc(Cl)c(S(=O)(=O)NC3CC3)c2)cc1,8.79

row,SMILES,"hERG current change (%, negative = inhibition) at 1uM [%]"
1,COc1ccc(C(=O)C2CCCN(C(=O)c3cccc(N(C)C)c3)C2)cc1OC (centres unmarked),11.5
2,C=CCOC(=O)Cn1cnc2c(sc3nc(C)cc(C)c32)c1=O,13.5
3,CC(Sc1nc2ccc(C(=O)c3ccccc3)cc2[nH]1)C(=O)O (centres unmarked),12.2
4,CSCCC(NC(=O)c1ccc(Cl)cc1Cl)C(=O)OC1CCCCC1=O (centres unmarked),10.7
5,Cc1ccc(C2=NC3(CCCCC3)NC2=S)cc1,6.21
6,CCCOc1ccc(C(=O)Nc2ccc(S(=O)(=O)N3C[C@@H]4C[C@@H](C3)c3cccc(=O)n3C4)cc2)cc1,7.93
7,Cn1c(=O)c(=O)n(C)c2cc(S(=O)(=O)N3CCN(c4ccccc4F)CC3)ccc21,7.12
8,O=C(N/N=C/c1ccccc1O)c1cc(=O)[nH]c2ccccc12,13.9
9,Cc1cc(Cl)ccc1NC(=S)NCc1ccccc1Cl,13.4
10,COc1ccc(OC)c(S(=O)(=O)Nc2cc3c4c(c2)CC(=O)N4CCC3)c1,7.91
11,Cc1ccc(C2(C)NC(=O)N(CC(=O)Nc3ccc(N4CCOCC4)cc3N3CCOCC3)C2=O)cc1 (centres unmarked),6.66
12,N#Cc1cc(-c2ccccc2)oc1NC(=O)c1ccco1,-4.5
13,COc1cc(OC)c(NS(=O)(=O)c2cc(C(=O)OCC(=O)NCC3CCCO3)ccc2OC)cc1Cl (centres unmarked),-7.5
14,CC(=O)Oc1ccc(/C=N/NC2=NS(=O)(=O)c3ccccc32)cc1,15.1
15,C=CCn1cc(C(=O)NCCOC)c(=O)c2cc(S(=O)(=O)N(CC)CC)ccc21,5.14
16,Br.COc1cccc(C(=O)Cn2c(NCCCO)nc3ccccc32)c1,11.3
17,Cc1cc(C)n2nc(CNS(=O)(=O)c3cccc([N+](=O)[O-])c3)nc2n1,17.6
18,O=C1CSC(=NC(=O)c2ccccc2)N1,4.77
19,CN(CCc1ccccn1)C(=O)CC1C(=O)NCCN1Cc1ccccc1C(F)(F)F (centres unmarked),4.75
20,CCCCCn1c(N2CCN(c3cccc(Cl)c3)CC2)nc2c1c(=O)[nH]c(=O)n2C,-3.22
21,CCCCOc1ccc(C(=O)Nc2ccc(S(=O)(=O)Nc3cc(C)on3)cc2)cc1OC,17.1
22,CC1CCN(CC(=O)Nc2sc3c(c2C#N)CCC3)CC1,9.88

row,SMILES,"hERG current change (%, negative = inhibition) at 1uM [%]"
1,O=C(NCCNc1cc(Cl)ccc1[N+](=O)[O-])c1ccco1,5.19
2,CCN(CC)C(=O)c1[nH]cnc1C(=O)N[C@@H](C)C(=O)OC(C)(C)C,11.3
3,COc1ccc(/C=C(\NC(=O)c2ccco2)C(=O)Nc2ccc(C(C)=O)cc2)cc1,15.6
4,c1nc(NC2CCCC2)c2[nH]cnc2n1,5.57
5,COc1cc(OC)c(NC(=O)Nc2ccc(OC)c(OC)c2)cc1Cl,9.3
6,O=C1CCC(c2ccccc2)c2ccccc21 (centres unmarked),11.3
7,COc1ccc(CCC(=O)N(C)CC(=O)Nc2cc(C)ccc2C)cc1,5.79
8,O=C(c1cccc(NS(=O)(=O)c2ccc(F)c(F)c2)c1)N1CCN(C(c2ccccc2)c2ccccc2)CC1,-3.46
9,N#Cc1cccc(Nc2c3c(nc4ccccc24)CCCC3)c1,-60.5
10,COc1ccc(NC(=O)CSc2ccc(-c3sc(C)nc3C)nn2)cc1OC,5.05
11,C=CCOc1c(Br)cc(/C=N/Nc2ccc(C(=O)O)cc2)cc1OCC,-2.76
12,COc1ccc(NC2CCCN(C(=O)c3ccc(OC)cc3OC)C2)cc1 (centres unmarked),4.7
13,O=C(O)c1ccc(NS(=O)(=O)c2ccc3c(c2)OCCO3)cc1,-11
14,CCCCn1c(N)c(N(CC(C)C)C(=O)C2CC(=O)N(c3ccc(C)cc3)C2)c(=O)[nH]c1=O (centres unmarked),15.7
15,COc1ccc(S(=O)(=O)Cc2ccc(C(=O)NCc3ccco3)o2)cc1,-15.4
16,Oc1c(CN2CCOCC2)cc(COCc2ccccc2)c2cccnc12,-1.59
17,CCN(CC)S(=O)(=O)c1ccc(N2CCOCC2)c(NC(=O)C2=COCCO2)c1,8.31
18,COc1cccc(NC(=O)N2CCCC2C(=O)NCc2ccc(Cl)cc2)c1 (centres unmarked),-5.51
19,C/C(O)=C(/C=Nc1ccccc1)C(=O)Nc1ccccc1,8.99
20,N#CC1=C(N)Oc2nc[nH]c(=O)c2C1c1cccs1 (centres unmarked),17.3
